Measured values: the supplement of paper PMC4604168 (melanoma cell lines)
Some of the results follow. Single values are uncertain, as repeats are few or missing.

These compounds were tested on UACC257 (assay: cell count relative to DMSO control; melanoma cells; higher = more viable cells). Details: library dose: low library concentration; 72 h.
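Also: cell number obtained by counting DAPI-stained nuclei in high-throughput microscope images with image analysis software, screen run in 1,536-well plates.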

Question: `COc1ccc(C2=N[C@@H](c3ccc(Cl)cc3)[C@@H](c3ccc(Cl)cc3)N2C(=O)N2CCNC(=O)C2)c(OC(C)C)c1` [Nutlin-3] + c1cc(-c2cnn3cc(-c4ccc(OCCN5CCCCC5)cc4)cnc23)ccn1 [Dorsomorphin] (first compound 0.1 µM, partner dose 0.4 µM) was tested. Which cell count did it give?
Answer: 68.7%

Question: For `Cn1c(=O)n(-c2ccc(C(C)(C)C#N)cc2)c2c3cc(-c4cnc5ccccc5c4)ccc3ncc21` + COc1cc(N2CCC(N3CCN(C)CC3)CC2)ccc1Nc1ncc(Cl)c(Nc2ccccc2S(=O)(=O)C(C)C)n1 [NVP-TAE684] (first compound 0.004 µM, partner dose 0.08 µM), which cell count is on record?
Answer: 87.8%

Question: With `COc1ccc(C2=N[C@@H](c3ccc(Cl)cc3)[C@@H](c3ccc(Cl)cc3)N2C(=O)N2CCNC(=O)C2)c(OC(C)C)c1` [Nutlin-3] + COc1cc2c(Oc3ccc4[nH]c(C)cc4c3F)ncnc2cc1OCCCN1CCCC1 [cediranib] (first compound 0.1 µM, partner dose 0.4 µM) as the compound, how does the cell count read?
Answer: 95.9%

Question: How did the cell count turn out when `CC(C)C[C@H](NC(=O)[C@H](Cc1ccccc1)NC(=O)c1cnccn1)B(O)O` [Bortezomib] + NC(=O)Nc1cc(-c2cccc(F)c2)sc1C(=O)N[C@H]1CCCNC1 [AZD7762] (first compound 0.001 µM, partner dose 0.02 µM) was run?
Answer: 82.7%

Question: `CC(C)C[C@H](NC(=O)[C@H](Cc1ccccc1)NC(=O)c1cnccn1)B(O)O` [Bortezomib] + O=C(O)c1ccc(-c2c[nH]c3ncc(-c4ccccc4)cc23)cc1C1CCCC1 [GSK650394] (first compound 0.001 µM, partner dose 0.16 µM) was tested. Which cell count did it give?
Answer: 78.3%

Question: For `COc1ccc(C2=N[C@@H](c3ccc(Cl)cc3)[C@@H](c3ccc(Cl)cc3)N2C(=O)N2CCNC(=O)C2)c(OC(C)C)c1` [Nutlin-3] + O=C1NC(=O)/C(=C/c2ccc(-c3ccc(F)cc3O)o2)S1 [AS252424] (first compound 0.1 µM, partner dose 1 µM), which cell count is on record?
Answer: 84.9%

Question: How did the cell count turn out when `Cn1c(=O)n(-c2ccc(C(C)(C)C#N)cc2)c2c3cc(-c4cnc5ccccc5c4)ccc3ncc21` + NCC(=O)Nc1ccc(-n2nc(C(F)(F)F)cc2-c2ccc3c(ccc4ccccc43)c2)cc1 [OSU03012] (first compound 0.004 µM, partner dose 1 µM) was run?
Answer: 75.2%

Question: Which cell count does the source give for `CC(C)C[C@H](NC(=O)[C@H](Cc1ccccc1)NC(=O)c1cnccn1)B(O)O` [Bortezomib] + O=C(Nc1ccccc1)c1cc([N+](=O)[O-])ccc1Cl [GW9662] (first compound 0.001 µM, partner dose 2 µM) here?
Answer: 84.6%

Question: `COc1ccc(C2=N[C@@H](c3ccc(Cl)cc3)[C@@H](c3ccc(Cl)cc3)N2C(=O)N2CCNC(=O)C2)c(OC(C)C)c1` [Nutlin-3] + Cn1cc(/C=C2\C(=O)Nc3cccnc32)c2ccccc21 [GW441756] (first compound 0.1 µM, partner dose 0.4 µM) was tested. Which cell count did it give?
Answer: 73.7%

Question: `Cn1c(=O)n(-c2ccc(C(C)(C)C#N)cc2)c2c3cc(-c4cnc5ccccc5c4)ccc3ncc21` + OCCn1cc(-c2cnc3nnn(Cc4ccc5ncccc5c4)c3n2)cn1 [PF04217903] (first compound 0.004 µM, partner dose 1 µM) was tested. Which cell count did it give?
Answer: 88.1%

Question: For `Cc1cn(-c2cc(NC(=O)c3ccc(C)c(Nc4nccc(-c5cccnc5)n4)c3)cc(C(F)(F)F)c2)cn1` [nilotinib] + Oc1nc(-c2ccc(C(F)(F)F)cc2)nc2c1CSCC2 [XAV939] (first compound 0.2 µM, partner dose 2 µM), which cell count is on record?
Answer: 95.9%

Question: With `COc1ccc(C2=N[C@@H](c3ccc(Cl)cc3)[C@@H](c3ccc(Cl)cc3)N2C(=O)N2CCNC(=O)C2)c(OC(C)C)c1` [Nutlin-3] + CO[C@@H]1[C@H](N(C)C(=O)c2ccccc2)C[C@H]2O[C@]1(C)n1c3ccccc3c3c4c(c5c6ccccc6n2c5c31)C(=O)NC4 [Midostaurin] (first compound 0.1 µM, partner dose 0.08 µM) as the compound, how does the cell count read?
Answer: 90.4%

Question: `COc1ccc(C2=N[C@@H](c3ccc(Cl)cc3)[C@@H](c3ccc(Cl)cc3)N2C(=O)N2CCNC(=O)C2)c(OC(C)C)c1` [Nutlin-3] + C[C@@H]1CCN(C(=O)CC#N)C[C@@H]1N(C)c1ncnc2[nH]ccc12 [CP690550] (first compound 0.1 µM, partner dose 1 µM) was tested. Which cell count did it give?
Answer: 84.5%

Question: With `Cc1cn(-c2cc(NC(=O)c3ccc(C)c(Nc4nccc(-c5cccnc5)n4)c3)cc(C(F)(F)F)c2)cn1` [nilotinib] + Cn1cncc1[C@@](N)(c1ccc(Cl)cc1)c1ccc2c(c1)c(-c1cccc(Cl)c1)cc(=O)n2C [tipifarnib] (first compound 0.2 µM, partner dose 0.01 µM) as the compound, how does the cell count read?
Answer: 73.8%

Question: Which cell count does the source give for `CC(C)C[C@H](NC(=O)[C@H](Cc1ccccc1)NC(=O)c1cnccn1)B(O)O` [Bortezomib] + CC(C)CCN1c2nc(Nc3cc(F)c(O)c(F)c3)ncc2N(C)C(=O)C1C [BID1870] (first compound 0.001 µM, partner dose 0.2 µM) here?
Answer: 86%

Question: `Cc1cn(-c2cc(NC(=O)c3ccc(C)c(Nc4nccc(-c5cccnc5)n4)c3)cc(C(F)(F)F)c2)cn1` [nilotinib] + O=C(CCCCCCC(=O)Nc1ccccc1)NO [vorinostat] (first compound 0.2 µM, partner dose 0.08 µM) was tested. Which cell count did it give?
Answer: 86.7%

Question: How did the cell count turn out when `Cn1c(=O)n(-c2ccc(C(C)(C)C#N)cc2)c2c3cc(-c4cnc5ccccc5c4)ccc3ncc21` + O=C1NC(=O)/C(=C/c2ccc(-c3ccc(F)cc3O)o2)S1 [AS252424] (first compound 0.004 µM, partner dose 1 µM) was run?
Answer: 83.5%

Question: How did the cell count turn out when `CC(C)C[C@H](NC(=O)[C@H](Cc1ccccc1)NC(=O)c1cnccn1)B(O)O` [Bortezomib] + COc1ccc(-c2ccc3c(N4CCOCC4)nc(N4C[C@@H](C)O[C@@H](C)C4)nc3n2)cc1CO [KU0063794] (first compound 0.001 µM, partner dose 0.02 µM) was run?
Answer: 65.8%

Question: `Cc1cc(Nc2cc(N3CCN(C)CC3)nc(/C=C/c3ccccc3)n2)n[nH]1` + CC(C)(C)c1cnc(CSc2cnc(NC(=O)C3CCNCC3)s2)o1 [SNS-032] (first compound 0.04 µM, partner dose 0.01 µM) was tested. Which cell count did it give?
Answer: 83.1%

Question: `Cc1cc(Nc2cc(N3CCN(C)CC3)nc(/C=C/c3ccccc3)n2)n[nH]1` + O=C(O)c1ccc(-c2c[nH]c3ncc(-c4ccccc4)cc23)cc1C1CCCC1 [GSK650394] (first compound 0.04 µM, partner dose 0.16 µM) was tested. Which cell count did it give?
Answer: 81.3%

Question: With `Cc1cn(-c2cc(NC(=O)c3ccc(C)c(Nc4nccc(-c5cccnc5)n4)c3)cc(C(F)(F)F)c2)cn1` [nilotinib] + COC(=O)c1sccc1S(=O)(=O)Nc1ccc(Nc2ccccc2)cc1OC [GSK0660] (first compound 0.2 µM, partner dose 1 µM) as the compound, how does the cell count read?
Answer: 89.4%

Question: Which cell count does the source give for `Cn1c(=O)n(-c2ccc(C(C)(C)C#N)cc2)c2c3cc(-c4cnc5ccccc5c4)ccc3ncc21` + CO[C@@H]1[C@H](N(C)C(=O)c2ccccc2)C[C@H]2O[C@]1(C)n1c3ccccc3c3c4c(c5c6ccccc6n2c5c31)C(=O)NC4 [Midostaurin] (first compound 0.004 µM, partner dose 0.08 µM) here?
Answer: 73.4%

Question: For `Cc1cn(-c2cc(NC(=O)c3ccc(C)c(Nc4nccc(-c5cccnc5)n4)c3)cc(C(F)(F)F)c2)cn1` [nilotinib] + NC(=O)Nc1cc(-c2cccc(F)c2)sc1C(=O)N[C@H]1CCCNC1 [AZD7762] (first compound 0.2 µM, partner dose 0.02 µM), which cell count is on record?
Answer: 119%

Question: `COc1ccc(C2=N[C@@H](c3ccc(Cl)cc3)[C@@H](c3ccc(Cl)cc3)N2C(=O)N2CCNC(=O)C2)c(OC(C)C)c1` [Nutlin-3] + O=c1cc(-c2cccc3c2Sc2ccccc2S3)oc(N2CCOCC2)c1 [KU55933] (first compound 0.1 µM, partner dose 1 µM) was tested. Which cell count did it give?
Answer: 89.9%

Question: `Cc1cn(-c2cc(NC(=O)c3ccc(C)c(Nc4nccc(-c5cccnc5)n4)c3)cc(C(F)(F)F)c2)cn1` [nilotinib] + O=S(=O)(c1ccccc1)N(CC(F)(F)F)c1ccc(C(O)(C(F)(F)F)C(F)(F)F)cc1 [T0901317] (first compound 0.2 µM, partner dose 1.4 µM) was tested. Which cell count did it give?
Answer: 80.5%

Question: With `Cc1cc(Nc2cc(N3CCN(C)CC3)nc(/C=C/c3ccccc3)n2)n[nH]1` + Cc1ccc(NC(=O)c2cccc(N(C)C)c2)cc1NC(=O)c1ccc(O)cc1 [ZM336372] (first compound 0.04 µM, partner dose 2 µM) as the compound, how does the cell count read?
Answer: 59.8%

Question: Which cell count does the source give for `Cn1c(=O)n(-c2ccc(C(C)(C)C#N)cc2)c2c3cc(-c4cnc5ccccc5c4)ccc3ncc21` + c1cc(-c2cnn3cc(-c4ccc(OCCN5CCCCC5)cc4)cnc23)ccn1 [Dorsomorphin] (first compound 0.004 µM, partner dose 0.4 µM) here?
Answer: 85.5%

Question: `COc1ccc(C2=N[C@@H](c3ccc(Cl)cc3)[C@@H](c3ccc(Cl)cc3)N2C(=O)N2CCNC(=O)C2)c(OC(C)C)c1` [Nutlin-3] + Oc1nc(-c2ccc(C(F)(F)F)cc2)nc2c1CSCC2 [XAV939] (first compound 0.1 µM, partner dose 2 µM) was tested. Which cell count did it give?
Answer: 89.9%

Question: For `Cc1cc(Nc2cc(N3CCN(C)CC3)nc(/C=C/c3ccccc3)n2)n[nH]1` + CCN(CC)CCCCNc1ncc2cc(-c3cc(OC)cc(OC)c3)c(NC(=O)NC(C)(C)C)nc2n1 [PD173074] (first compound 0.04 µM, partner dose 0.1 µM), which cell count is on record?
Answer: 90.9%
